pIC50: −log10 of the molar value. Lines with a small IC50 respond at low doses; a fit beyond the top or the lowest dose is shown as a bound at that dose. The AUC spans the tested range (256-fold, ending at the top dose) of the same fit; values near 1 show little effect. The top dose, if marked as inferred, was calculated from the reported fits.
How the values were obtained:
Experiment in all cases: Viability of human cancer cell lines after 72 h of drug (GDSC screen)
[1] = compound: CC(C)N(CCCNC(=O)Nc1ccc(C(C)(C)C)cc1)C[C@H]1O[C@@H](n2cc(Br)c3c(N)ncnc32)[C@H](O)[C@@H]1O [SGC0946]; conditions: top dose 0.5 µM; top dose inferred
Method: (§1)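 Human cancer cell lines in 384-well plates, medium with 10% serum, drug for 72 h over a 256-fold dose range (nine 2-fold or five 4-fold steps up to the top dose). Adherent lines were fixed and stained with the nucleic acid dye Syto60, suspension lines read with resazurin; signal relative to control wells, capped at 0 and 100%. One two-parameter sigmoid per drug and line, fitted in a mixed model over all curves with the slope shared within a line.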

[2] = compound: CCC/C=C/C=C/C(=O)O[C@H]1/C(=C/C(=O)OC)C[C@H]2C[C@H]([C@@H](C)O)OC(=O)C[C@H](O)C[C@@H]3C[C@H](OC(C)=O)C(C)(C)[C@](O)(C[C@@H]4C/C(=C/C(=O)OC)C[C@H](/C=C/C(C)(C)[C@]1(O)O2)O4)O3 [Bryostatin 1]; conditions: top dose 0.008 µM; top dose inferred
Method: as §1

[3] = compound: COc1ccc(COc2ccc(Cc3cnc(N)nc3N)cc2OC)cc1 [GW-2580]; conditions: top dose 20 µM; top dose inferred
Method: as §1

[4] = compound: Nc1cccc2c1CN(C1CCC(=O)NC1=O)C2=O [Lenalidomide]; conditions: top dose 5 µM; top dose inferred
Method: as §1

Cell Line | AUC [1] | pIC50 [1] | AUC [2] | pIC50 [2] | AUC [3] | pIC50 [3] | AUC [4] | pIC50 [4]
Ca9-22 (head and neck, adherent) | 0.987 | < 6.30 | 0.986 | < 8.10 | 0.987 | < 4.70 | 0.985 | < 5.30
Ca-Ski (cervix, adherent) | 0.979 | < 6.30 | 0.94 | < 8.10 | 0.95 | < 4.70 | 0.971 | < 5.30
CaR-1 (large intestine, adherent) | 0.975 | < 6.30 | 0.929 | < 8.10 | 0.958 | < 4.70 | 0.954 | < 5.30
Calu-3 (lung adenocarcinoma, adherent) | 0.981 | < 6.30 | 0.976 | < 8.10 | 0.983 | < 4.70 | 0.982 | < 5.30
Calu-6 (lung adenocarcinoma, adherent) | 0.981 | < 6.30 | 0.948 | < 8.10 | 0.98 | < 4.70 | 0.984 | < 5.30
Caov-4 (ovary, adherent) | 0.976 | < 6.30 | 0.98 | < 8.10 | 0.98 | < 4.70 | 0.98 | < 5.30
Capan-2 (pancreas, adherent) | 0.982 | < 6.30 | 0.98 | < 8.10 | 0.984 | < 4.70 | 0.984 | < 5.30
D-392MG (glioma, adherent) | 0.975 | < 6.30 | 0.977 | < 8.10 | 0.975 | < 4.70 | 0.964 | < 5.30
D-542MG (glioma, adherent) | 0.955 | < 6.30 | 0.841 | 8.13 | 0.982 | < 4.70 | 0.984 | < 5.30
DB (B-cell lymphoma, suspension) | 0.981 | < 6.30 | 0.981 | < 8.10 | 0.978 | < 4.70 | 0.946 | < 5.30
DBTRG-05MG (glioma, adherent) | 0.982 | < 6.30 | 0.939 | < 8.10 | 0.984 | < 4.70 | 0.98 | < 5.30
DG-75 (Burkitt lymphoma, suspension) | 0.984 | < 6.30 | 0.981 | < 8.10 | 0.982 | < 4.70 | 0.918 | < 5.30
DK-MG (glioma, adherent) | 0.974 | < 6.30 | 0.924 | < 8.10 | 0.978 | < 4.70 | 0.974 | < 5.30
DMS-53 (small cell lung carcinoma, adherent) | 0.986 | < 6.30 | 0.947 | < 8.10 | 0.959 | < 4.70 | 0.986 | < 5.30
DMS-79 (small cell lung carcinoma, suspension) | 0.985 | < 6.30 | 0.984 | < 8.10 | 0.964 | < 4.70 | 0.986 | < 5.30
DND-41 (T-cell leukaemia, suspension) | 0.989 | < 6.30 | 0.979 | < 8.10 | 0.989 | < 4.70 | 0.984 | < 5.30
DOK (head and neck, adherent) | 0.96 | < 6.30 | 0.972 | < 8.10 | 0.971 | < 4.70 | 0.854 | < 5.30
DSH1 (bladder, adherent) | 0.988 | < 6.30 | 0.952 | < 8.10 | 0.972 | < 4.70 | 0.989 | < 5.30
DU-145 (prostate, adherent) | 0.983 | < 6.30 | 0.956 | < 8.10 | 0.978 | < 4.70 | 0.98 | < 5.30
DU-4475 (breast, suspension) | 0.992 | < 6.30 | 0.941 | < 8.10 | 0.992 | < 4.70 | 0.992 | < 5.30
Daoy (medulloblastoma, adherent) | 0.987 | < 6.30 | 0.946 | < 8.10 | 0.979 | < 4.70 | 0.961 | < 5.30
Detroit562 (head and neck, adherent) | 0.987 | < 6.30 | 0.988 | < 8.10 | 0.985 | < 4.70 | 0.985 | < 5.30
DoTc2-4510 (cervix, adherent) | 0.987 | < 6.30 | 0.974 | < 8.10 | 0.985 | < 4.70 | 0.983 | < 5.30
EBC-1 (lung squamous cell carcinoma, adherent) | 0.981 | < 6.30 | 0.983 | < 8.10 | 0.981 | < 4.70 | 0.981 | < 5.30
ECC10 (stomach, suspension) | 0.977 | < 6.30 | 0.973 | < 8.10 | 0.982 | < 4.70 | 0.982 | < 5.30
EFM-19 (breast, adherent) | 0.967 | < 6.30 | 0.851 | < 8.10 | 0.968 | < 4.70 | 0.977 | < 5.30
EFM-192A (breast, adherent) | 0.984 | < 6.30 | 0.808 | 8.33 | 0.985 | < 4.70 | 0.985 | < 5.30

Source: the supplement of paper PMC4967469
